Test results taken from the supplement of paper PMC8728848.
The list shows a part of the results.

How the values were obtained:
Experiment in all cases: glycan array binding signal (z-score within array); higher = stronger binding
Conditions in all cases: glycan notation: IUPAC condensed, linker removed
[1] = biological target: Gal(b1-3)[Fuc(a1-4)]GlcNAc(b1-2)Man(a1-3)[Gal(b1-3)[Fuc(a1-4)]GlcNAc(b1-2)Man(a1-6)]Man(b1-4)GlcNAc(b1-4)GlcNAc
Summary of the method: (§1)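 Columns mapping to the same glycan were averaged after glycan names were converted to IUPAC-condensed notation. The data come from 3228 arrays in the Consortium for Functional Glycomics database, limited to those with an available protein sequence. Binding is reported as a within-array Z-score averaged across arrays of one protein sequence and across linkers.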

[2] = biological target: Gal(b1-3)[Fuc(a1-4)]GlcNAc(b1-2)Man(a1-3)[Gal(b1-3)[Fuc(a1-4)]GlcNAc(b1-2)Man(a1-6)]Man(b1-4)GlcNAc(b1-4)[Fuc(a1-6)]GlcNAc
Summary of the method: as §1

[3] = biological target: Gal(b1-3)[Fuc(a1-4)]GlcNAc(b1-3)Gal(b1-3)[Fuc(a1-4)]GlcNAc
Summary of the method: as §1

[4] = biological target: Gal(b1-3)[Fuc(a1-4)]GlcNAc(b1-3)Gal(b1-4)GlcNAc
Summary of the method: as §1

[5] = biological target: Gal(b1-3)[Fuc(a1-4)]GlcNAc(b1-3)Gal(b1-4)[Fuc(a1-3)]GlcNAc
Summary of the method: as §1

[6] = biological target: Gal(b1-3)[GlcNAc(b1-6)]GalNAc
Summary of the method: as §1

[7] = biological target: Gal(b1-3)[Neu5Ac(a2-6)]GalNAc
Summary of the method: as §1

[8] = biological target: Gal(b1-3)[Neu5Ac(a2-6)]GlcNAc(b1-6)Gal(b1-4)Glc
Summary of the method: as §1

[9] = biological target: Gal(b1-3)[Neu5Ac(b2-6)]GalNAc
Summary of the method: as §1

[10] = biological target: Gal(b1-4)GalNAc(a1-3)[Fuc(a1-2)]Gal(b1-4)GlcNAc
Summary of the method: as §1

[11] = biological target: Gal(b1-4)GalNAc(b1-3)[Fuc(a1-2)]Gal(b1-4)GlcNAc
Summary of the method: as §1

Gal(b1-4)Glc = biological target: Gal(b1-4)Glc
Summary of the method: as §1

Gal(b1-4)Glc6S = biological target: Gal(b1-4)Glc6S
Summary of the method: as §1

Gal(b1-4)GlcNAc = biological target: Gal(b1-4)GlcNAc
Summary of the method: as §1

[12] = biological target: Gal(b1-4)GlcNAc(a1-6)Gal(b1-4)GlcNAc
Summary of the method: as §1

[13] = biological target: Gal(b1-4)GlcNAc(b1-2)Man(a1-3)Man(b1-4)GlcNAc(b1-4)GlcNAc
Summary of the method: as §1

[14] = biological target: Gal(b1-4)GlcNAc(b1-2)Man(a1-3)[Gal(b1-4)GlcNAc(b1-2)Man(a1-6)]Man(b1-4)GlcNAc(b1-4)GlcNAc
Summary of the method: as §1

[15] = biological target: Gal(b1-4)GlcNAc(b1-2)Man(a1-3)[Gal(b1-4)GlcNAc(b1-2)Man(a1-6)]Man(b1-4)GlcNAc(b1-4)[Fuc(a1-6)]GlcNAc
Summary of the method: as §1

[16] = biological target: Gal(b1-4)GlcNAc(b1-2)Man(a1-3)[Man(a1-6)]Man(b1-4)GlcNAc(b1-4)GlcNAc
Summary of the method: as §1

[17] = biological target: Gal(b1-4)GlcNAc(b1-2)Man(a1-6)Man(b1-4)GlcNAc(b1-4)GlcNAc
Summary of the method: as §1

[18] = biological target: Gal(b1-4)GlcNAc(b1-2)Man(a1-6)[Man(a1-3)]Man(b1-4)GlcNAc(b1-4)GlcNAc
Summary of the method: as §1

[19] = biological target: Gal(b1-4)GlcNAc(b1-2)[Gal(b1-4)GlcNAc(b1-4)]Man(a1-3)[Gal(b1-4)GlcNAc(b1-2)Man(a1-6)]Man(b1-4)GlcNAc(b1-4)GlcNAc
Summary of the method: as §1

[20] = biological target: Gal(b1-4)GlcNAc(b1-3)Gal(b1-3)GlcNAc
Summary of the method: as §1

[21] = biological target: Gal(b1-4)GlcNAc(b1-3)Gal(b1-4)Glc
Summary of the method: as §1

[22] = biological target: Gal(b1-4)GlcNAc(b1-3)Gal(b1-4)GlcNAc
Summary of the method: as §1

[23] = biological target: Gal(b1-4)GlcNAc(b1-3)Gal(b1-4)GlcNAc(b1-3)Gal(b1-4)GlcNAc
Summary of the method: as §1

[24] = biological target: Gal(b1-4)GlcNAc(b1-3)Gal(b1-4)[Fuc(a1-3)]GlcNAc(b1-3)Gal(b1-4)[Fuc(a1-3)]GlcNAc
Summary of the method: as §1

[25] = biological target: Gal(b1-4)GlcNAc(b1-3)GalNAc
Summary of the method: as §1

[26] = biological target: Gal(b1-4)GlcNAc(b1-3)[Gal(b1-4)GlcNAc(b1-6)]Gal(b1-4)GlcNAc
Summary of the method: as §1

[27] = biological target: Gal(b1-4)GlcNAc(b1-3)[GlcNAc(b1-6)]Gal(b1-4)GlcNAc
Summary of the method: as §1

[28] = biological target: Gal(b1-4)GlcNAc(b1-6)Gal(b1-4)GlcNAc
Summary of the method: as §1

[29] = biological target: Gal(b1-4)GlcNAc(b1-6)Gal(b1-4)GlcNAc(b1-6)GalNAc
Summary of the method: as §1

[30] = biological target: Gal(b1-4)GlcNAc(b1-6)GalNAc
Summary of the method: as §1

[31] = biological target: Gal(b1-4)GlcNAc(b1-6)[Gal(b1-3)]GalNAc
Summary of the method: as §1

Gal3S(b1-3)GalNAc = biological target: Gal3S(b1-3)GalNAc
Summary of the method: as §1

Gal3S(b1-3)GlcNAc = biological target: Gal3S(b1-3)GlcNAc
Summary of the method: as §1

[32] = biological target: Gal3S(b1-3)[Fuc(a1-4)]GlcNAc
Summary of the method: as §1

Gal3S(b1-4)Glc = biological target: Gal3S(b1-4)Glc
Summary of the method: as §1

Gal3S(b1-4)Glc6S = biological target: Gal3S(b1-4)Glc6S
Summary of the method: as §1

Gal3S(b1-4)GlcNAc = biological target: Gal3S(b1-4)GlcNAc
Summary of the method: as §1

Gal3S(b1-4)GlcNAc6S = biological target: Gal3S(b1-4)GlcNAc6S
Summary of the method: as §1

[33] = biological target: Gal3S(b1-4)[Fuc(a1-3)]Glc
Summary of the method: as §1

Gal3S4S(b1-4)GlcNAc = biological target: Gal3S4S(b1-4)GlcNAc
Summary of the method: as §1

Gal3S6S(b1-4)GlcNAc = biological target: Gal3S6S(b1-4)GlcNAc
Summary of the method: as §1

Gal3S6S(b1-4)GlcNAc6S = biological target: Gal3S6S(b1-4)GlcNAc6S
Summary of the method: as §1

B1: Neuropilin-1 (Homo sapiens), O14786 (protein)
chain: FKCMEALGMESGEIHSDQITASSQYSTNWSAERSRLNYPENGWTPGEDSYREWIQVDLGLLRFVTAVGTQGAISKETKKKYYVKTYKIDVSSNGEDWITIKEGNKPVLFQGNTNPTDVVVAVFPKPLITRFVRIKPATWETGISMRFEVYGCKITDYPCSGMLGMVSGLISDSQITSSNQGDRNWMPENIRLVTSRSGWALPPAPHSYINEWLQIDLGEEKIVRGIIIQGGKHRENKVFMRKFKIGYSNNGSDWKMIMDDSKRKAKSFEGNNNYDTPELRTFPALSTRFIRIYPERATHGGLGLRMELLGCEVE
With B1 the “glycan array binding signal (z-score)” value [1] was 0.864, the “glycan array binding signal (z-score)” value [2] was -0.016 and the “glycan array binding signal (z-score)” value [3] was -0.087. For the same binder, the “glycan array binding signal (z-score)” value [4] was -0.297, the “glycan array binding signal (z-score)” value [5] was -0.27 and the “glycan array binding signal (z-score)” value [6] was -0.251. For the same binder, the “glycan array binding signal (z-score)” value [7] was -0.23, the “glycan array binding signal (z-score)” value [8] was -0.277 and the “glycan array binding signal (z-score)” value [9] was -0.089. For the same binder, the “glycan array binding signal (z-score)” value [10] was -0.182, the “glycan array binding signal (z-score)” value [11] was -0.281 and the “glycan array binding signal (z-score)” value (Gal(b1-4)Glc) was -0.292. The “glycan array binding signal (z-score)” value (Gal(b1-4)Glc6S) was -0.246, the “glycan array binding signal (z-score)” value (Gal(b1-4)GlcNAc) was -0.285 and the “glycan array binding signal (z-score)” value [12] was -0.271. The “glycan array binding signal (z-score)” value [13] was -0.278, the “glycan array binding signal (z-score)” value [14] was -0.291 and the “glycan array binding signal (z-score)” value [15] was -0.172. For the same binder, the “glycan array binding signal (z-score)” value [16] was -0.228, the “glycan array binding signal (z-score)” value [17] was -0.183 and the “glycan array binding signal (z-score)” value [18] was -0.248. For the same binder, the “glycan array binding signal (z-score)” value [19] was -0.256, the “glycan array binding signal (z-score)” value [20] was -0.313 and the “glycan array binding signal (z-score)” value [21] was -0.234. For the same binder, the “glycan array binding signal (z-score)” value [22] was -0.228, the “glycan array binding signal (z-score)” value [23] was -0.212 and the “glycan array binding signal (z-score)” value [24] was -0.097. For the same binder, the “glycan array binding signal (z-score)” value [25] was -0.26, the “glycan array binding signal (z-score)” value [26] was -0.239 and the “glycan array binding signal (z-score)” value [27] was -0.247. For the same binder, the “glycan array binding signal (z-score)” value [28] was -0.264, the “glycan array binding signal (z-score)” value [29] was -0.09 and the “glycan array binding signal (z-score)” value [30] was -0.233. For the same binder, the “glycan array binding signal (z-score)” value [31] was -0.272, the “glycan array binding signal (z-score)” value (Gal3S(b1-3)GalNAc) was -0.259 and the “glycan array binding signal (z-score)” value (Gal3S(b1-3)GlcNAc) was -0.106. The “glycan array binding signal (z-score)” value [32] was -0.223, the “glycan array binding signal (z-score)” value (Gal3S(b1-4)Glc) was -0.292 and the “glycan array binding signal (z-score)” value (Gal3S(b1-4)Glc6S) was -0.16. For the same binder, the “glycan array binding signal (z-score)” value (Gal3S(b1-4)GlcNAc) was -0.294, the “glycan array binding signal (z-score)” value (Gal3S(b1-4)GlcNAc6S) was -0.154 and the “glycan array binding signal (z-score)” value [33] was 0.036. The “glycan array binding signal (z-score)” value (Gal3S4S(b1-4)GlcNAc) was -0.199, the “glycan array binding signal (z-score)” value (Gal3S6S(b1-4)GlcNAc) was -0.196 and the “glycan array binding signal (z-score)” value (Gal3S6S(b1-4)GlcNAc6S) was -0.15.
